Results on 83 compounds are retold here after PubChem BioAssay AID1645887 (National Center for Advancing Translational Sciences (NCATS), 2021).

Several values for one entry are separate records, joined by “and”; a condition that tells them apart may be missing. Identical values can stand only once. About 40 (0.2%) of roughly 16,000 compounds were called active. Not shown: some 1% with an inconclusive outcome. Calls follow the shape of the dose curve; as a rule, active = well fitted activation curve with a large enough effect; inconclusive = small, poorly fitted or top-dose-only effect, or another doubt; inactive = no such curve, though single readings can be large or run the other way. The list shows a part of the results.
% is scaled to controls: 0 for no effect and ±100 for the full control effect.

UniProt Q8WZA2, sequence (Q8WZA2 whole entry, looked up): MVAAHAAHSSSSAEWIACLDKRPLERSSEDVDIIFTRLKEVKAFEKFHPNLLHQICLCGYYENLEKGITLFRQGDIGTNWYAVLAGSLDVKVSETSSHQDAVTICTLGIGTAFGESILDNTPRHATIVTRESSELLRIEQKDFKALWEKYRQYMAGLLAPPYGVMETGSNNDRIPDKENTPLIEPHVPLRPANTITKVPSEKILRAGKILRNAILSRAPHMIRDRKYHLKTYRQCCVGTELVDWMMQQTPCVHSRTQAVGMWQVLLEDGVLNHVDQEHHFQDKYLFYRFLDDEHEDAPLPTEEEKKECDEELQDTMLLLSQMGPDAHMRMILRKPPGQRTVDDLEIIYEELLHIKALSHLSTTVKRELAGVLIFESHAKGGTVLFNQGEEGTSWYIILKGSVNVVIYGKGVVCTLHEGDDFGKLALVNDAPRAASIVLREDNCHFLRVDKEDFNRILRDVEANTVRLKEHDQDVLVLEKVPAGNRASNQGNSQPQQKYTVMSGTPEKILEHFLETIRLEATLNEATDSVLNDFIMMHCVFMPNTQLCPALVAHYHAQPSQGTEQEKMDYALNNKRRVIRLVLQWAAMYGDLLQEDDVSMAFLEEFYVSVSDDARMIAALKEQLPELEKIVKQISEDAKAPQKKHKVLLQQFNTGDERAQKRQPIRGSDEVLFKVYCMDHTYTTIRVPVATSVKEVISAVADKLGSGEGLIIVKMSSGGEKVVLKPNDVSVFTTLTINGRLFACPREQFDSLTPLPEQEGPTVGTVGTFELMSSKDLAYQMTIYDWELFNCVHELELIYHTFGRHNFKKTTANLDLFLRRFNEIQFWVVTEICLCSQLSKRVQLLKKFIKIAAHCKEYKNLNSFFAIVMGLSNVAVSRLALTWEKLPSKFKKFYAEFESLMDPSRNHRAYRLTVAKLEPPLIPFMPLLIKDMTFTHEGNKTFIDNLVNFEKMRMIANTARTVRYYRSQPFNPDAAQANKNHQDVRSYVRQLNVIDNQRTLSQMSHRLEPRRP

In this assay the target is Rap guanine nucleotide exchange factor 4 (Homo sapiens) (UniProt Q8WZA2). Kind of assay: Validation qHTS for agonist of cAMP-regulated guanine nucleotide exchange factor 4 (EPAC2).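 Also: exchange makes BODIPY-GDP fluorescence drop when released from Rap1B; series mostly up to about 150 µM.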 The following applies: EPAC2 Rap1B BODIPY-GDP exchange, fluorescence; activation: active compounds read high. The essentials:
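Signal normalized against 6.5 mM cAMP as agonist control. Mix of EPAC2 (100 nM), RAP1B-BODIPY-GDP (250 nM) and GDP (50 uM) was read kinetically at 480/540 nm, every 5 min over 30 min, after 5 min room-temperature incubation with compound.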
On to `Clc1cccc(Nc2nnc(-c3ccccc3)c3ccccc23)c1`, for which the activation was inactive: -5.54% and inactive: -2%.
As for `COc1ccc2c(c1)-c1nc(-n3ncc(C(=O)NCc4cccnc4)c3C3CC3)ncc1CC2`, the activation was inactive: -8.29%.
For `Cc1cc(C(=O)NCc2nnc3n2CCN(Cc2ccc(F)cc2F)CC3)c(C)o1` the value was inactive: -0.459%; for `CC(=O)OCC(=O)[C@@]1(O)[C@H](OC(C)=O)C[C@H]2[C@@H]3CCC4=CC(=O)C=C[C@]4(C)[C@@]3(F)[C@@H](O)C[C@@]21C`, inactive: -5.06%.
Under `COCC1CCCN(Cc2ccc3c(c2)CN(C(=O)c2cnn(C(C)C)c2)CCO3)C1` (stereo not drawn) stands inactive: -1.33%.
Turning to `O=S1(=O)CCOC[C@H](CC2CCCCC2)N1Cc1ccc(F)cc1`, the activation was inactive: -27.3%.
With `Cc1ccc2c(c1)CN(CCC(=O)NCc1cc(C)n(C)n1)CC(C)O2` (stereo not drawn), the activation was inactive: 1.79%.
Turning to `Cc1nc2cc(NC(=O)[C@@H]3C[C@@H](Sc4ccccn4)CN3Cc3cccc(Cl)c3)ccc2s1`, the activation is inactive: 0.0431%.
Consider `O=C(C[C@H]1C(=O)N(c2ccccc2)C[C@@H]1Cc1ccccc1)Nc1ccccc1`, for which the activation is inactive: -11%.
Take `c1ccc2c(Nc3ccncc3)nc(-c3ccc4c(c3)OCO4)nc2c1`: the activation was inactive: -7.97%.
Under `CCCCNC(=O)O[C@H]1C[C@@H]2CCN3C(=O)CCC[C@H]([C@H]1Cc1ccccc1)[C@H]23` stands inactive: -12.8%.
With `NC(=O)N1c2ccccc2CC(=O)c2ccccc21`, the activation is inactive: -7.75%.
Take `COC(=O)C1CCCCN1Cc1nc(N2CCCCC2)c2cc(OC)c(OC)cc2n1` (stereo not drawn): the activation was inactive: -15.4%.
With `O=c1c(CCc2ccccc2)nc2cnc(N3CCNCC3)nc2n1Cc1ccc(F)cc1`, the activation was inactive: -33.2%.
Under `Nc1ccc(Cc2ccc(C=O)cc2)cc1` stands inactive: -12.1%; under `O=C(O)CCC(=O)O`, inactive: -1.89%; under `CCO[C@H]1[C@H](NC(=O)c2cccnc2)c2ccccc2C12CCN(C(=O)c1cc(C)n(C)n1)CC2`, inactive: 4.53%.
Under `NC1=NCC2c3ccccc3Cc3ccccc3N12` (stereo not drawn) stands inactive: -4.47% and inactive: -18.4%; under `CC(=O)Nc1ccccc1-c1nc(CNC(=O)c2ccc(-c3ccccc3F)cc2)c(C)o1`, inactive: -14.7%.
With `Cc1ncc2c(c1CNC(=O)/C=C/c1cccs1)CCN(C(=O)C1CC(=O)OC13CCCCC3)C2` (stereo not drawn), the activation was inactive: -7.26%.
As to `CSCCC(N)C(=O)O` (stereo not drawn), the activation was inactive: -14%.
Under `O=C(c1csnn1)N1CCC2(CC1)CCN(c1ccncc1)CC2` stands inactive: -15.1%; under `CCCCCCCCCCCCCCCCCCN(CCCCCCCCCCCCCCCCCC)c1ccccc1`, inactive: -4.23%.
With `O=C(Nc1nccs1)[C@@H]1CC=C[C@@H]2CCN(Cc3ccc(Cl)c(Cl)c3)C(=O)[C@@H]21`, the activation is inactive: 2.91%.
Regarding `C[C@]12O[C@H](C[C@]1(O)CO)n1c3ccccc3c3c4c(c5c6ccccc6n2c5c31)CNC4=O`, the activation is inactive: 6.79%.
For the compound `Cc1nc2ccc(NC(=O)Nc3ccnc4cccnc34)cc2o1`, the activation was inactive: 18.1%.
For the compound `C[N+]1(CC(=O)c2ccc(Br)cc2)CCOCC1`, the activation is inactive: -25%.
Regarding `O=c1c(O)c(Br)ccc2c(Br)c(O)c(O)c(O)c12`, the activation was inactive: -10.1%.
`C[C@@H](N)C(=O)O`: the activation is inactive: -9.64% and inactive: -0.696%.
For `C[N+]1(CC(=O)c2ccc(Cl)c(Cl)c2)CCOCC1` the value was inactive: -13.6%.
For `CC(C)Oc1ccc(C(=O)NCC2Cc3cc(Cl)cc(-c4ncccn4)c3O2)cc1` (stereo not drawn), the activation was inactive: -7.68%.
For `COc1ccc2c(c1)CCc1cnc(-n3ncc(C(=O)NCCN4CCOCC4)c3C)nc1-2` the value was inactive: -4.54%.
Regarding `CC(C)[C@@H](N)C(=O)O`, the activation is inactive: -1.75%.
Turning to `O=C(O[C@H]1[C@H](Cc2ccccc2)NS(=O)(=O)[C@H]2CC3C=C[C@]12O3)c1ccc(Br)cc1`, the activation is inactive: -20.3%.
`Cc1nn(C)c(Cl)c1CN1CCOc2ccc(CN3CCC(Oc4cccnc4)CC3)cc2C1`: the activation was inactive: -17%.
For `OC[C@@H](O)COc1cccc2ccccc12`, the activation was inactive: -15.6%.
With `Cc1noc(C)c1-c1cncnc1NC1CC1`, the activation is inactive: -7.98%.
For the compound `CCCC(=O)O[C@]1(C(=O)CO)CC[C@H]2[C@@H]3CCC4=CC(=O)CC[C@]4(C)[C@H]3[C@@H](O)C[C@@]21C`, the activation was inactive: -8.47%.
Turning to `COc1cccc(N2[C@@H](CC(C)=O)c3ccc(/C=C/C(C)=O)cc3S2(=O)=O)c1`, the activation was inactive: -19.4%.
Turning to `COc1ccc(CNc2ccnc(-c3cccc(C#N)c3)n2)c(OC)c1`, the activation is inactive: -14.3%.
`CN(C)c1nc(N)c(C(=O)N=C(N)N)nc1Cl`: the activation is inactive: -5.57%.
Consider `O=c1[nH]c(=O)n([C@H]2C[C@H](O)[C@@H](CO)O2)cc1C(F)(F)F`, for which the activation was inactive: -28.9%.
In the case of `CC(=O)OC1CC[C@@]2(C)C(CC[C@@]3(C)C2CC=C2C4CC(C)(C)CC[C@]4(C)CC[C@@]23C)C1(C)C` (stereo partly drawn), the activation was inactive: 7.28%.
On to `CN(C)Cc1ccccc1-c1nc(NCc2cccs2)c2ccccc2n1`, for which the activation is inactive: -8.49%.
For the compound `Cn1cc(-c2nc3cnc(N4CCNCC4)nc3n(Cc3ccc(F)cc3)c2=O)c2ccccc21`, the activation was inactive: 6.96%.
Under `CCOC(=O)C1=C(N)Oc2ccc(Br)cc2[C@@H]1[C@@H](C#N)C(=O)OCC` stands inactive: -6.43%.
Under `Cc1nnc(SCC2=C(C(=O)O)N3C(=O)[C@@H](NC(=O)Cn4cnnn4)[C@H]3SC2)s1` stands inactive: -3.13% and inactive: -19.8%; under `CCCCCCCCCCCCCCCCOCCOCCOCCOCCOCCOCCOCCOCCOCCOCCOCCOCCOCCOCCOCCOCCOCCOCCOCCOCCO`, inactive: -24.3%.
Take `Cc1ccc(C(=O)NCCc2nnc3n2CCN(C(=O)c2ccnc(Cl)c2)CC3)cc1`: the activation was inactive: -22.4%.
In the case of `COc1ccc(C(=O)N2CCC3(CC2)CCN(C(c2ccccc2)c2ccccc2)CC3)cc1`, the activation is inactive: -11.2%.
Take `CN(C)CC[C@@H](c1ccc(Br)cc1)c1ccccn1`: the activation was inactive: -8.71% and inactive: -32.8%.
As to `CCCC[C@H]1COCCS(=O)(=O)N1Cc1ccc(Br)cc1`, the activation is inactive: -9.8%.
As to `N#CCCn1c(=O)cnc2cnc(N3CCOCC3)nc21`, the activation is inactive: -20.8%.
Turning to `N#Cc1ccccc1-c1ccc2ncnc(NCc3cccnc3)c2c1`, the activation was inactive: -15.8%.
With `CCC(C)[C@@H](N)C(=O)O` (stereo partly drawn), the activation is inactive: -3.86% and inactive: 8.19%.
On to `C1=C(c2ccc3c(c2)CN(Cc2cccn2-c2ncccn2)CCO3)Cc2ccccc21`, for which the activation was inactive: -16.1%.
For `CCNc1ncc2nc(-c3ccc(F)cc3)c(=O)n(CCc3ccccc3)c2n1`, the activation was inactive: -0.0022%.
On to `COc1ccc(CN2CCc3nnc(CNC(=O)c4cc(C)oc4C)n3CC2)c2ccccc12`, for which the activation is inactive: -30.9%.
With `COc1cc(=O)n2c(c1C(=O)NCc1ccc3c(c1)OCO3)CCN(C(=O)c1ccccc1F)CC2`, the activation was inactive: -10.5%.
Regarding `O=S(=O)(c1ccccc1)N1CCC2(CCCN(c3ccccn3)C2)CC1`, the activation was inactive: -0.282%.
With `COCCn1c(=O)c(CCc2ccccc2)nc2cnc(OCc3ccccc3)nc21`, the activation is inactive: 1.87%.
Turning to `Cc1noc(C)c1-c1nccc(N2CCN(C)CC2)n1`, the activation was inactive: -3.41%.
As for `COCC(=O)Nc1cc(C(=O)NC2Cc3ccccc3C2)cc2nc(-c3cccnc3)n(C)c12`, the activation was inactive: 1.31%.
`C=C(C)C1CC=C(C(=O)O)CC1` (stereo not drawn): the activation is inactive: -6.72% and inactive: -22%.
Regarding `N[C@H](C(=O)O)[C@@H]1C[C@@H]1C(=O)O`, the activation was inactive: -6.19% and inactive: -12.1%.
For `O=C1[C@H](Cc2ccccc2)NCCCC[C@H](c2ccco2)N1Cc1ccccc1` the value was inactive: -36.5%; for `O=c1[nH]c2cc(Cl)c(Cl)cc2[nH]c1=O`, inactive: -6.74% and inactive: -1.04% and inactive: -11.8%.
As to `COc1ccc(C(=O)N2CCC[C@@]3(CCN(CC(C)C)C3)C2)cc1`, the activation was inactive: -20.4%.
`N#Cc1cccc(NC(=O)N2CCCC3(CCN(C(=O)c4cccc(F)c4)CC3)C2)c1`: the activation is inactive: -11.3%.
For the compound `CN(Cc1ccco1)c1ncncc1-c1cccc(NS(C)(=O)=O)c1`, the activation is inactive: 3.47%.
As for `COc1ccc2nc(S(=O)Cc3ncc(C)c(OC)c3C)[nH]c2c1` (stereo not drawn), the activation was inactive: 0.367%.
In the case of `Cc1nc2c(O)cccc2c(=O)[nH]1`, the activation was inactive: 1.07%.
Under `CC1(C)[C@H](O[C@H]2O[C@H](C(=O)O)[C@@H](O)[C@H](O)[C@H]2O[C@@H]2O[C@H](C(=O)O)[C@@H](O)[C@H](O)[C@H]2O)CC[C@@]2(C)[C@H]1CC[C@]1(C)[C@H]2C(=O)C=C2[C@H]3C[C@@](C)(C(=O)O)CC[C@]3(C)CC[C@]21C` stands inactive: 0.629%; under `C[C@@H](N)CCCP(=O)(O)O`, inactive: -1.34%.
For `CN(C)Cc1ccccc1-c1ccc2ncnc(N(C)Cc3ccco3)c2c1` the value was inactive: -9.35%.
For `COc1ccc(CNc2ncnc3ccc(-c4ccc5c(c4)OCO5)cc23)c(OC)c1` the value was inactive: -3.39%.
As to `CC(C)[C@@H]1CC[C@@H](C)CC1=O`, the activation is inactive: -20.2%.
Under `CCOC(=O)/C=C/c1ccc2oc3ccccc3c(=O)c2c1` stands inactive: -29.5%; under `CC(C)C1COc2cc3oc(=O)ccc3cc2O1` (stereo not drawn), inactive: -29.7%.
In the case of `COc1ccc(C(=O)N2CCC3(CCCN(C(=O)NC(C)C)C3)CC2)cc1`, the activation is inactive: -7%.
Consider `CN(C)c1ncc2nc(CCc3ccccc3)c(=O)n(Cc3ccc(F)cc3)c2n1`, for which the activation is inactive: -7.94%.
Regarding `O=C(Cn1cncn1)N1CCOc2ccc(CN3CCN(c4ccccc4)CC3)cc2C1`, the activation is inactive: -4.09%.
As for `Cc1cnc(CNc2ncncc2-c2ccccc2CN(C)C)cn1`, the activation is inactive: -5.17%.
